Experimental data from the GPR68 mutational scans of Howard et al. (2025).

B1: GPR68, Q15743 (parent)
chain: MGNITADNSSMSCTIDHTIHQTLAPVVYVTVLVVGFPANCLSLYFGYLQIKARNELGVYLCNLTVADLFYICSLPFWLQYVLQHDNWSHGDLSCQVCGILLYENIYISVGFLCCISVDRYLAVAHPFRFHQFRTLKAAVGVSVVIWAKELLTSIYFLMHEEVIEDENQHRVCFEHYPIQAWQRAINYYRFLVGFLFPICLLLASYQGILRAVRRSHGTQKSRKDQIQRLVLSTVVIFLACFLPYHVLLLVRSVWEASCDFAKGVFNAYHFSLLLTSFNCVADPVLYCFVSETTHRDLARLRGACLAFLTCSRTGRAREAYPLGAPEASGKSGAQGEEPELLTKLHPAFQTPNSPGSGGFPTGRLA

Legend:
[1] = variants of: B1; experiment: cAMP reporter score (Enrich2 score, wild type = 0); higher = more signal; HEK293T, FACS bins
[2] = variants of: B1; experiment: surface expression score (Enrich2 score, wild type = 0); higher = more signal; HEK293T, FACS bins

Variant	cAMP reporter score ([1]; pH 5.5)	cAMP reporter score ([1]; pH 6, modulator: ogerin)	cAMP reporter score ([1]; pH 6.5, modulator: ogerin)	surface expression score [2]	cAMP reporter score ([1]; pH 6)
G263del	-1.41	-0.934	-0.703	-2.2	–
G263F	2.04	0.464	–	2.04	-0.522
G263W	1.22	0.948	1.13	1	1.05
G263A	-0.021	0.162	0.989	0.137	0.723
G263P	-1.17	-1.07	-0.918	-1.33	-1.16
G263V	-0.003	0.191	0.121	0.307	0.003
G263T	0.308	1.97	1	0.906	–
G263S	0.403	0.192	-0.239	-0.116	1.3
G263D	0.136	0.618	0.172	-0.492	-1.3
G263N	-0.69	-0.258	-0.163	-0.305	-0.787
G263C	-0.475	-0.535	-0.508	-0.513	-0.648
G263Q	0.917	1.4	1.65	0.353	–
G263E	-0.292	-0.164	-0.173	-0.906	0.355
G263I	1.1	1.69	0.147	1.61	-0.281
G263L	-0.297	-0.038	0.15	-0.241	–
G263Y	0.778	1.06	1.34	0.631	0.277
G263R	0.797	0.633	–	1.17	1.89
G263M	-0.11	-0.03	-0.08	-0.486	0.04
G263H	0.294	0.534	-0.07	0.446	-0.229
G263K	0.824	0.664	1.47	0.545	0.804
S257_C258insGSG	-0.554	-0.973	-0.892	1.5	-0.826
N266_A267del	-1.17	-1.93	-1.02	-2.72	-1.18

Variant	cAMP reporter score ([1]; pH 5.5)	cAMP reporter score ([1]; pH 6, modulator: ogerin)	cAMP reporter score ([1]; pH 6.5, modulator: ogerin)	surface expression score [2]	cAMP reporter score ([1]; pH 6)
L273_L274del	-1.42	-1.38	-1	-0.752	-0.975
L272_L273insGS	-1.88	-1.63	-1	-2.23	-0.818
A267_Y268insGSG	-1.45	-1.95	–	-2.66	–
F270_L272del	-1.04	-1.77	-0.396	-2.73	-0.481
L273_L274insG	-1.42	-1.51	-0.559	-2.03	-0.815
C258A	-1.2	–	-1.04	-0.601	-0.387
C258T	-0.994	-1.87	-0.341	-1.23	-0.451
C258L	-0.379	-1.07	-1.23	–	–
C258H	-1.33	-1.64	-1.31	-0.751	-1.08
C258I	-2.3	-1.51	-1.25	-2.58	-1.42
C258N	-1.48	–	-1.46	-1.45	-0.845
C258S	-1.86	-1.49	-1.16	-1.63	-1.06
C258P	-1.34	-1.58	-0.963	0.15	-0.501
C258Y	-1.36	-1.34	-1.3	-1.34	-0.826
C258R	-0.677	-1.46	-0.662	-1.59	0.39
C258W	-1.1	-0.49	-1.21	-1.62	-1.16
C258M	-1.18	-0.998	-0.214	-1.78	–
C258F	-1.23	-1.56	-1.32	-2.3	-1.36
C258E	-0.986	–	-1.32	-0.863	-0.703
C258D	-1.35	-1.28	-0.786	-0.059	–
C258Q	-1.44	-1.09	–	-1.21	-1.13
C258G	-1.68	-2.05	-1.27	0.064	-0.609

Variant	cAMP reporter score ([1]; pH 5.5)	cAMP reporter score ([1]; pH 6, modulator: ogerin)	cAMP reporter score ([1]; pH 6.5, modulator: ogerin)	surface expression score [2]	cAMP reporter score ([1]; pH 6)
A267_Y268del	-0.06	-1.75	-0.858	-3.36	-0.232
Y268_H269insGS	-0.851	-0.736	-0.556	-2	0.176
S257F	-1.16	-1.39	-1.41	-1.51	-0.773
S257Y	-0.201	-1.13	–	–	-0.803
S257E	0.154	1.26	1.61	1.65	0.368
S257H	1.57	2.08	0.456	1.47	0.51
S257V	-1.56	-2.21	-0.692	-2.46	-1.47
S257L	-0.939	–	-0.454	-1.73	-0.583
S257D	0.492	0.92	3	1.95	2.35
S257I	-0.882	–	-0.12	-2.37	-1.34
S257P	-1.07	-1.78	-1	1.09	-1.52
S257M	-0.793	–	-0.631	-2.92	-1.33
S257T	0.88	0.513	0.512	-0.194	–
S257Q	-0.385	0.525	–	-0.371	-0.041
S257W	-1.18	-0.744	–	–	1.16
S257K	0.675	0.789	0.149	-0.492	–
S257N	0.6	0.562	1.39	0.837	1.43
S257R	0.497	0.373	-0.187	0.12	–
S257G	0.122	0.482	1.11	-0.446	–
A261del	0.3	0.567	0.155	0.201	-0.391
K262_G263del	-1.09	-2.31	-0.493	-0.282	-1.17

The least precise scores are not listed. The source holds two more conditions with little spread; they are left out. In variant names, del marks residues removed and ins residues inserted between the two positions. For part of these data: The data file names ogerin without a concentration.
